In PMC10726135 one finds binding signal (log2 normalized intensity) data, which are given here for 72 sequences.

The other results are listed elsewhere or left out. At the low end of the ranking, values are background and their order means little. Measured with an extract: partners may take part in the binding.

This test deals with T1, HNF4alpha2 (COS-7 nuclear extract) (UniProt P41235).
T1 sequence: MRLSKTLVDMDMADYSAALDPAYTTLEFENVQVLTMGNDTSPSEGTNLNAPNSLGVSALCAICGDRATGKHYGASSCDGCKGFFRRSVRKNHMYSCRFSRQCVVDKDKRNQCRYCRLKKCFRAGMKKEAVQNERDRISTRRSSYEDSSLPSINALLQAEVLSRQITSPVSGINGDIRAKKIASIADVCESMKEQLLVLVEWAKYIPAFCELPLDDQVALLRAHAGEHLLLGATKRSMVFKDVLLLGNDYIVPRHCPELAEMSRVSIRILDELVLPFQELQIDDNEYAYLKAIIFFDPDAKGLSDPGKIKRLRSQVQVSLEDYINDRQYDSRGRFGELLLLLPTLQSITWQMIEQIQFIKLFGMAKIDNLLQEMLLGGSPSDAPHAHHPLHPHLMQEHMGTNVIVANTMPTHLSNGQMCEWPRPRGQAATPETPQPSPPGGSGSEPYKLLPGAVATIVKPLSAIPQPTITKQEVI
Briefly: protein-binding microarray. The following applies: COS-7 nuclear extract on double-stranded Agilent 4x180k PBM; binding buffer, salt, pH and temperature not given; high values mean tight binding; double strand, one strand shown; sequences stand for … in …GCCTAGGGAGATTAGAGTATCGGTCGA
With TATCTCACTCCCACACTGGTAACCTTTAGT, the binding signal (log2 normalized intensity) was found to be 2.25. As to GAGGCAGCAAGGTCAAAGTGCGTCCTGTGG, the binding signal (log2 normalized intensity) turned out to be 3.92.

For AAGGAGAACTGAGTAGGAGAATGTTAATGA, the binding signal (log2 normalized intensity) was -0.408.

For TCTTGGCCAACAACTAGGGCAAAGGTTAGC, the binding signal (log2 normalized intensity) was determined as 4.69. On to CTTTTGAGTTTCTACCATAGACCCTGTTGG, for which the binding signal (log2 normalized intensity) amounted to 0.733. Next, ACTTAGCCCTTGTCTTCCTCTCTGAAGGAT: 0.995.

Take CACATGGCCGTAAAGATAAGAACGCTAGAC: the binding signal (log2 normalized intensity) was -1.12. Under GAAAACCCGGAGCGGAGCATCCCTCGGGCC stands -1.11.

In the case of ATTAACCCTTTAGTGCCTGGATCTTGGAAC, the binding signal (log2 normalized intensity) was determined as 1.65. Turning to TGTGCCTCTTAGTGAAGGATGGGGACCTTG, the binding signal (log2 normalized intensity) stood at 1.33. Under GTGTGTCAACAGAGTGCTTAATCTCTGCTC stands 0.273; under ATCCAGAGTGGGACAAAGTTCCCCGGGCAG, -0.737; under AGAGAGTCTGGCTGACTAACAAGCTGCCAA, -1.19. Under AGAGCTCAGAAGCCACCAGTGCAAATATAA stands -0.972; under ATTGTGATTCCTGTGATACCTTCTTTGCCT, 1.13. Under TGCATCAGTGCTGACCTACCTGACCTGGCA stands 1.28. With AAACTTCACAATGGGCCCCAGTAAAAACAG, the binding signal (log2 normalized intensity) is -0.952. Next, CATCATGCCCTTTGGCCCCCAGAGCCCCGT: 6.

On to TTCTTCCCTCACTTACATCCTCAGGTAAAG, for which the binding signal (log2 normalized intensity) is 1.8. For TGGATGTTGAACCTCTGTCCTTGGCCTCAC, the binding signal (log2 normalized intensity) was 1.71. Under TGGAGGGCAGTGGATGGGGGCGTTCCCCGA stands -0.0239; under ACCTACGGGTCAAGGGTTCAGGGCTCAGTT, 2.15; under CCATGCTCTTTGGCCTGGCATTTGAGACTA, -0.793.

For the sequence GCGCGGACATAAAATTAAAGCGGACGGGCT, the binding signal (log2 normalized intensity) is -1.09. As for AGATTGCATCTGTTTTTATTTCCCCTTTCT, the binding signal (log2 normalized intensity) was determined as 2.05. As to TTTGTGAGAGGTCAATGTCCAGTTCCGCTG, the binding signal (log2 normalized intensity) was determined as 4.67. Next, AGGGGCTATTTCTGACCTTTGCACCAGAGA: 6.87. For CCTCTGGCCACCAGTTATTCATGTCCCTAC, the binding signal (log2 normalized intensity) was -0.784. With TTGAGCTGCATATTTGAGTAGGATTTTGCT, the binding signal (log2 normalized intensity) is -1.05. Under AGCCTGTGTGCTGAGAGTTGGAAAATGTCG stands -0.147; under CCAAATGACGCTTTAAGTAGGCACTATTAT, -0.879. As for GGCCAGGTGGGCTGCTCCCAGTGCCCTTTG, the binding signal (log2 normalized intensity) was determined as 3.73.

Turning to TGATATTGGGTGAGTGTTAGAGCACCCTCT, the binding signal (log2 normalized intensity) is -0.244. Under ATGTTCAGGATTACTATAGGTTCTACTCTC stands -0.807; under CAAAACTTCACCTCCCCTAGACTTACTATT, 1.26. Under AGGTTAAGACTTTGAATCAGTAAATATTTG stands 0.901; under CACGGTGGACATTGTCCAAGGGCTGTAGCA, 0.404; under GGGTTCAGATGAAAGGCGGCAACTTCTTCA, -1.06. Regarding TTCTTTTATCACTTTGTAATGTCCCTCTTT, the binding signal (log2 normalized intensity) stood at 2.03. On to ACCCATGTTTGCCCTTGATAAGAGCTGCTC, for which the binding signal (log2 normalized intensity) was 0.457. TCTCTGCTGGGCAGAGGGACAACTGAGTTA: the binding signal (log2 normalized intensity) is 0.618. As for AAGCAATAGGGTTCGGTGCAATAACACCTA, the binding signal (log2 normalized intensity) was -1.01. Under TCACGGCAGCTTGTACCCTTCTTTCCACCC stands 1.54; under AAGGCTTTGAAGTCTGGTGGCAAGTACCCT, -0.842. Regarding AGGTGGTTCACAAATAGCAGAAAATCCAGG, the binding signal (log2 normalized intensity) is -1.13. AGAATTGAAGAGAGTTAGGGCCTTGCTATG: the binding signal (log2 normalized intensity) is -0.979. On to ACAGCTCTTGTGCTCTGGACATACCTCTAA, for which the binding signal (log2 normalized intensity) is -1.13.

Consider ACCTGGGCAACAGGGAGCCCTTATATCCAC, for which the binding signal (log2 normalized intensity) was -1.12.

Turning to CAAAGGACCAAAAGATATTTGCTGCTGACA, the binding signal (log2 normalized intensity) was -1.15. Turning to GGAATGTGGATGCTGGAATGAGGGAGGCAG, the binding signal (log2 normalized intensity) is -0.881. Take ACTACTAACCGAAAGTCTGACCCTTGACCA: the binding signal (log2 normalized intensity) was found to be 6.42. Under CTGAACTTTAGCTCACTGTTGAACATTAAC stands 1.19.

In the case of CCTTCTTGGCAAGTTAATGTGGCCTAATGT, the binding signal (log2 normalized intensity) is 1.85. For the sequence CCAATGTTTACCAGCTCTGTTGCTTATCTT, the binding signal (log2 normalized intensity) is 1.05. Next, ACAGCCTCTAAGCACGGCCAGGATTAACCA: -1.09.

As to AGGACATAGTCCTCTGCATATTTCTGCTAC, the binding signal (log2 normalized intensity) was -1.08.

As to CCTTTTATTTTCTTATCTGCCTAGGCATTT, the binding signal (log2 normalized intensity) is 1.33. For TGAAATTTGTATCTTGGGTTAGGCCTTTAG, the binding signal (log2 normalized intensity) came to 0.964.

Take CCACTATTCATAAAGTTCTCTGGCAAATAT: the binding signal (log2 normalized intensity) is 1.24. Next, TGACAAAGTCCATCTGGGCAAGGTGTCAAC: 1.63; TTCACCCGCGCCCAGCGGTTCCGGGCGGCA: -1.18; ACTCTACAACAAAGGAAATGAAGCAACACT: -1.13. Next, TGCGAGCGCCTTGCGAGCGTACGCAGGGCG: -1.17; CATGCAATCACACTAATCTGTCAGAAAACC: -0.731; GCAGAAGGGATGGGAACCGACCTTTGGTTC: 5.13. Under GAAGGACACTTAGAGATAAGGTAACAGGCC stands -1.02. On to AATGTGTGTTCTGCTGCCATTGGATGGAAT, for which the binding signal (log2 normalized intensity) was determined as 1.31.

Regarding CAAAAACAATCAGGGGTTAGGGTGAAGTAA, the binding signal (log2 normalized intensity) is -0.187.

As for CTTAGTGATTAGAAGAAAAGAGTTGCTCAA, the binding signal (log2 normalized intensity) is -1.07.

On to AAGGATCAAGGACCTGCTCTGGGGCTACCT, for which the binding signal (log2 normalized intensity) is -0.978. Next, ATCATTCATGGGCCAAAGTTTGTTTCTTAT: 1.11; TTCTAAAGGCACAATCAGGGCTAAAGTCAG: -0.709.
